# Among all 310,000 compounds or so, about 2,200 (0.71%) showed an effect of 50% or more. The effect is printed as a negative number. Some of the results follow.
# Target: human ether-à-go-go-related gene (hERG) potassium channel (human, UniProt Q12809)
# Assay: primary screen, population patch clamp on CHO cells stably expressing hERG
# human ether-à-go-go-related gene (hERG) potassium channel, sequence (Q12809 whole entry, looked up): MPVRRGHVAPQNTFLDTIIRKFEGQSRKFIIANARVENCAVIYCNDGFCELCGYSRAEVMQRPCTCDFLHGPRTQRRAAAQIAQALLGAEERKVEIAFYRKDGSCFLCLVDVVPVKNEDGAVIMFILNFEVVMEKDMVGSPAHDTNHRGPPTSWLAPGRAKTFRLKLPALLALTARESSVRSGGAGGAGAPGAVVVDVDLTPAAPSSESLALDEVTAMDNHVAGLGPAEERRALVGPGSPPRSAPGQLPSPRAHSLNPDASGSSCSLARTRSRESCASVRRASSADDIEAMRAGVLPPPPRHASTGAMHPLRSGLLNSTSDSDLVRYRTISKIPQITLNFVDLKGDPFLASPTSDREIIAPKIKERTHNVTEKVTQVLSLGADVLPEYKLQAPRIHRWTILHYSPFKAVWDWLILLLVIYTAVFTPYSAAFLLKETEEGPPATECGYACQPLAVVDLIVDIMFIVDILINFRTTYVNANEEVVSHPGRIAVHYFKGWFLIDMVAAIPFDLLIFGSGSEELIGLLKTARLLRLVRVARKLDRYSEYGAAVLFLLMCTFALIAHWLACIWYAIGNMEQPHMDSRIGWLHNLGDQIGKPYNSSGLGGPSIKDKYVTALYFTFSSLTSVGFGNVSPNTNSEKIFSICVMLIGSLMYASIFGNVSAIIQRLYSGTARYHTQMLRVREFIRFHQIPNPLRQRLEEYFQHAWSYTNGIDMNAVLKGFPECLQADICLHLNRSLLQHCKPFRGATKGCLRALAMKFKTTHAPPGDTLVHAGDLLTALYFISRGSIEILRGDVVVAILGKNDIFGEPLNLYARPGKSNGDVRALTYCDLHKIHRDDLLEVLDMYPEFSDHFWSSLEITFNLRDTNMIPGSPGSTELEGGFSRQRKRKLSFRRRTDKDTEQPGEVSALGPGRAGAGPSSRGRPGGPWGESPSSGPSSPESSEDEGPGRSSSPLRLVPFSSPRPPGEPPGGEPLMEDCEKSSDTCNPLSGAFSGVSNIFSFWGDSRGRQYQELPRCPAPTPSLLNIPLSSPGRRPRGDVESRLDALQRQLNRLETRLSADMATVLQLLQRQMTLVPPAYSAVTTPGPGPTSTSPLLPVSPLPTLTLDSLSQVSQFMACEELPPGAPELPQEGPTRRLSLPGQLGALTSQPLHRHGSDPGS
row,Structure (SMILES),"hERG current change (%, negative = inhibition) at 1uM [%]"
1,CCOC(=O)C1CCCN(C(=O)COc2ccccc2O)C1 (stereo not shown),10
2,CCC(CC)C(=O)Nc1c2c(nn1-c1ccc(OC)cc1)CS(=O)(=O)C2,4.57
3,Cc1ccc(-c2nnc(SCC(=O)NCC3CCCO3)n2C)cc1 (stereo not shown),8.33
4,CN(Cc1ccccc1)C(=O)COC(=O)c1ccc(Cl)c(N)c1,5.69
5,COc1ccc(CNC(=O)c2ccc(NS(=O)(=O)c3ccc4[nH]c(=O)[nH]c4c3)cc2)cc1OC,5.85
6,Cc1c(C(=O)Nc2cc(S(=O)(=O)N3CCOCC3)ccc2N2CCN(C)CC2)oc2ccccc12,15
7,Cc1cccc(NC(=O)CCC2CCN(Cc3nccs3)CC2)c1,6.29
8,CSc1ccc(S(=O)(=O)Nc2ccc(F)cc2)cc1,12.6
9,CC1=NNC(=O)C1Cc1c(Cl)cccc1Cl (stereo not shown),11.8
10,CC(C)(C)C(=O)CSc1nc2c(c(-c3cccs3)c1C#N)CCC2.CCO,13.3
11,Cl.O=C(c1ccco1)N(CCCN1CCOCC1)c1nc(-c2ccc(Cl)cc2)cs1,-5.41
12,O=c1c2sc3nc(N4CCOCC4)c4c(c3c2ncn1-c1ccccc1)CCCC4,14.8
13,COc1ccc(OCC(=O)Nc2ccc3c(c2)nc(CN2CCCC2)n3C)cc1,-0.236
14,COCCCNC(=S)N/N=C/c1ccc(N(C)C)cc1,19.1
15,CCc1ccc(C(CNC(=O)c2ccc3c(=O)n(-c4ccccc4F)c(=S)[nH]c3c2)N(C)C)cc1 (stereo not shown),15
16,NC(=O)c1ccsc1NC(=O)c1ccc(N2CCCC2=O)cc1,4.14
17,O=C(OCc1cccc(F)c1)c1cc2ccccc2cc1O,11.6
18,O=C1CCCN1C(=O)COc1cc(F)ccc1[N+](=O)[O-],15.4
19,CC1(C)COC(c2ccc(F)c([N+](=O)[O-])c2)=N1,-3.64
20,Cc1csc(SCC(=O)NCc2cccc(Cl)c2)n1,9.09
21,COc1ccc(Nc2nccc3c2ncn3C)cc1,14.6
22,Cc1[nH]c2ccc(C(=O)OC(C)C(=O)NC3CCCCC3C)cc2c1C (stereo not shown),2.83

row,Structure (SMILES),"hERG current change (%, negative = inhibition) at 1uM [%]"
1,Cc1ccc(S(=O)(=O)NC(=O)Nc2ncc3c(n2)CC(c2ccco2)CC3=O)cc1 (stereo not shown),3.79
2,Cc1cc(OCC(=O)O)c2cccc(C)c2n1.Cl,11.8
3,CC1CCCC(C)N1CCCNC(=O)c1ccc2c(c1)NC(=O)c1ccccc1S2 (stereo not shown),19.2
4,O=C(NCCN1CCCC1)c1ccc2c(c1)N(Cc1ccc(F)cc1)C(=O)c1ccccc1S2=O (stereo not shown),15.2
5,COCC(=O)NCc1nc2ccccc2n1Cc1ccccc1F,13
6,CCOC(=O)c1cnn(-c2nc(-c3cccc(F)c3)cs2)c1C(F)(F)F,4.63
7,CC(=O)c1ccc(S(=O)(=O)N2CCN(C(=O)CSC(=S)N3CCCC3)CC2)cc1,-3.92
8,CC(=O)Nc1ccc(-c2ccc(NC(C)=O)cc2)cc1,10.5
9,COc1ccc(C)cc1NC(=O)CSc1nnc(-c2ccc(C)cc2)o1,11.1
10,COC(=O)C(CCSC)NC(=O)CNS(=O)(=O)c1ccc(F)cc1 (stereo not shown),16.4
11,O=C(c1ccccc1-c1nc(-c2ccccc2Cl)no1)N1CCOCC1,9.72
12,O=C1Cc2ccccc2C(=O)N1CCc1ccccc1,4.84
13,CCC(=O)Nc1ccc(Cl)c(NC(=O)c2cccc(OC)c2)c1,12
14,CCn1c2ccccc2c2cc(NC(=O)COC(=O)c3cc(S(=O)(=O)N4CCCCC4)ccc3Cl)ccc21,3.03
15,O=C(NCCc1c[nH]c2ccccc12)c1ccc(F)cc1F,9.99
16,COc1ccc(C(=O)N2CCCC(c3nc(-c4cc(OC)c(OC)c(OC)c4)no3)C2)cc1 (stereo not shown),9.62
17,Cc1ccc(NC(=O)Nc2ccc3c(c2)CCC3)cc1,-20.5
18,CCCCn1c(-c2ccc(OC(F)F)cc2)nc2c1c(=O)[nH]c(=O)n2CC(C)C,-4.87
19,CCOC(=O)COc1ccc(C(=O)CC)cc1OC,14.1
20,COc1ccc(CCC(=O)Nc2ccc(C)c(S(=O)(=O)N(C)C)c2)cc1OC,2.59
21,O=C(COC(=O)c1cc(=O)[nH]c2ccc(Br)cc12)c1ccccc1,18.8
22,O=S(=O)(c1ccccc1)N1CCC(Oc2ccc(-n3cnnn3)cc2)CC1,-44.9

row,Structure (SMILES),"hERG current change (%, negative = inhibition) at 1uM [%]"
1,CCn1c(C)c(C(C)=O)c(N2CCN(c3ccc(OC)cc3)CC2)nc1=S,0.185
2,CCc1ccc(NC(=S)NC2CC3CCC(C2)N3Cc2ccco2)cc1 (stereo not shown),-11.7
3,O=C(Nc1ccccc1)Nc1ccncc1,5.54
4,CCc1cc2cccc(C)c2nc1SCC(=O)N1CCN(C(=O)c2ccco2)CC1,-12.3
5,NC(=O)COC(=O)CC1CC2CCC1C2 (stereo not shown),9.03
6,COc1ccc(C(=O)N/N=C/c2cc3ccccc3[nH]c2=S)cc1,3.93
7,CN1CCN(C(=O)COc2ccc(S(=O)(=O)NCc3ccccc3)cc2Cl)CC1,4.71
8,CCC(C)NS(=O)(=O)c1ccc(NS(=O)(=O)c2ccccc2[N+](=O)[O-])cc1 (stereo not shown),11.5
9,C=CCn1c(COc2ccc(F)cc2)nnc1SC(C)C(=O)NCC1CCCO1 (stereo not shown),9.66
10,COc1ccc2cc(-c3cccnc3)ncc2c1,15.5
11,CCCNC(=O)c1onc(CSc2ccccc2)c1C(=O)NCCC,8.4
12,Cc1cccc(NC(=S)N/N=C/c2cccn2Cc2ccc(F)cc2)c1,6.56
13,CCCOc1ccc2oc(=O)c3c(c2c1)CCCN3C(=O)CN1CCc2ccccc2C1,5.33
14,CCCCNC(=S)N(C)/N=C/c1ccc(F)cc1,6.79
15,COc1ccc(OC)c(/C=N/Nc2cc(C)nc(N3CCOCC3)n2)c1,4.83
16,CC12CCC(C(=O)Nc3cccc(NC(=O)C45CCC(C)(C(=O)O4)C5(C)C)n3)(OC1=O)C2(C)C,10.9
17,O=c1c2ccccc2nc(COc2ccccc2)n1/N=C/c1cn[nH]c1-c1ccccc1,6.72
18,Cc1nc(N(C)C)c2sc(=S)n(Cc3ccccc3)c2n1,11.8
19,Cc1ccc(C)n1-c1c(C(=O)NN)cnn1-c1ccccc1,7.54
20,Cc1cccc(-c2c3c(=O)n(C)c(=O)n(C)c3cn2C(C)(C)C)c1,3.64
21,N#Cc1cccc(S(=O)(=O)NCC(=O)NCc2ccc3c(c2)OCO3)c1,9.94
22,CCOc1ccc(NC(=O)C2CCN(S(=O)(=O)c3ccc4c(c3)C(C)(C)C(=O)N4C)CC2)cc1,5.93

row,Structure (SMILES),"hERG current change (%, negative = inhibition) at 1uM [%]"
1,COc1ccc(NS(=O)(=O)c2ccc(N3CCOCC3)c(NC(=O)c3ccco3)c2)cc1,18
2,O=P(c1ccccc1)(c1ccccc1)C(O)c1ccco1 (stereo not shown),8.94
3,O=C(c1ccc(Cn2cc(Cl)c([N+](=O)[O-])n2)cc1)N1CCN(Cc2ccccc2)CC1,6.22
4,CC(C)CNC(=O)[C@H](Cc1ccccc1)NC(=O)c1cccs1,16.4
5,COC(=O)CCC(=O)c1oc2ccc(Br)cc2c1N,12.8
6,O=C(O)CN1CCN(c2ncc(C(F)(F)F)cc2Cl)CC1,12.6
7,O=C(CC1(O)C(=O)c2ccccc2C1=O)c1ccccc1,14.3
8,CCc1c(C)sc(NC(=O)C2CCCCC2C(=O)O)c1C(N)=O (stereo not shown),9.96
9,CCCCCOc1ccc(C(=O)C(c2ccccc2)N2CCOCC2)cc1.Cl (stereo not shown),11.5
10,COc1cc(/C=C2\CCCc3c2nc2ccccc2c3C(=O)O)cc(Cl)c1O,13.8
11,CN(C)C(=O)c1ccc(NC(=O)c2ccc(-c3ccc(Cl)cc3)o2)cc1,-2.31
12,CCCNC(=O)C(=O)N/N=C/c1cccs1,23.7
13,O=[N+]([O-])c1cccc(S(=O)(=O)Nc2ccc(-c3ccc(N4CCOCC4)nn3)cc2)c1,0.598
14,CCCCOc1cccc(C2/C(=C(\O)c3ccc4c(c3)OCCO4)C(=O)C(=O)N2CCN2CCOCC2)c1 (stereo not shown),14.2
15,CCOC(=O)c1[nH]c2cc3c(cc2c1NC(=O)CN1CCCCC1C)OCO3 (stereo not shown),-7.96
16,COc1ccc(N2CCN(C(CNC(=O)C(=O)NCC(OC)OC)c3ccco3)CC2)cc1 (stereo not shown),11.5
17,Cc1ccc(Cn2c(C3CCCN3c3nc(C)cs3)nc3cc(C(=O)NCCCO)ccc32)cc1 (stereo not shown),4.96
18,Cc1noc(C)c1-c1nnc(-c2ccc(C(F)(F)F)cc2)o1,14.4
19,COc1ccc(S(=O)(=O)Cc2ccc(C(=O)NCc3ccccc3)o2)cc1,8.92
20,COc1ccccc1OCc1nnc(SCC(=O)N2CCCCC2)n1-c1ccccc1,-9.97
21,O=C(COc1ccc2c(c1)OCO2)Nc1cccc(F)c1,19.2
22,CN(CCOc1ccc(Cl)cc1)C(=O)C1CCN(C(=O)c2ccc(F)cc2)CC1,-34.7
